Experimental data: PubChem BioAssay AID504339 (National Center for Advancing Translational Sciences (NCATS), 2011)
Where “and” joins values, the source holds several entries; their conditions need not be identical. Identical values can stand only once. Out of some 390,000 compounds screened, about 17,000 (4.4%) were called active. Inconclusive means that the source gave no clear call. Such entries were picked first, then a sample of the others. The call rests on the fitted dose curve; in most records, active means well fitted inhibition curve with a large enough effect; inconclusive means small, poorly fitted or top-dose-only effect; inactive means no such curve, though single readings can be large or run the other way. Where the call is inconclusive, the potency comes from a doubtful curve fit.

Target: Lysine-specific demethylase 4A (Homo sapiens) (UniProt O75164)
Chain of UniProt O75164 (O75164 whole entry, looked up, the tested form may be a part): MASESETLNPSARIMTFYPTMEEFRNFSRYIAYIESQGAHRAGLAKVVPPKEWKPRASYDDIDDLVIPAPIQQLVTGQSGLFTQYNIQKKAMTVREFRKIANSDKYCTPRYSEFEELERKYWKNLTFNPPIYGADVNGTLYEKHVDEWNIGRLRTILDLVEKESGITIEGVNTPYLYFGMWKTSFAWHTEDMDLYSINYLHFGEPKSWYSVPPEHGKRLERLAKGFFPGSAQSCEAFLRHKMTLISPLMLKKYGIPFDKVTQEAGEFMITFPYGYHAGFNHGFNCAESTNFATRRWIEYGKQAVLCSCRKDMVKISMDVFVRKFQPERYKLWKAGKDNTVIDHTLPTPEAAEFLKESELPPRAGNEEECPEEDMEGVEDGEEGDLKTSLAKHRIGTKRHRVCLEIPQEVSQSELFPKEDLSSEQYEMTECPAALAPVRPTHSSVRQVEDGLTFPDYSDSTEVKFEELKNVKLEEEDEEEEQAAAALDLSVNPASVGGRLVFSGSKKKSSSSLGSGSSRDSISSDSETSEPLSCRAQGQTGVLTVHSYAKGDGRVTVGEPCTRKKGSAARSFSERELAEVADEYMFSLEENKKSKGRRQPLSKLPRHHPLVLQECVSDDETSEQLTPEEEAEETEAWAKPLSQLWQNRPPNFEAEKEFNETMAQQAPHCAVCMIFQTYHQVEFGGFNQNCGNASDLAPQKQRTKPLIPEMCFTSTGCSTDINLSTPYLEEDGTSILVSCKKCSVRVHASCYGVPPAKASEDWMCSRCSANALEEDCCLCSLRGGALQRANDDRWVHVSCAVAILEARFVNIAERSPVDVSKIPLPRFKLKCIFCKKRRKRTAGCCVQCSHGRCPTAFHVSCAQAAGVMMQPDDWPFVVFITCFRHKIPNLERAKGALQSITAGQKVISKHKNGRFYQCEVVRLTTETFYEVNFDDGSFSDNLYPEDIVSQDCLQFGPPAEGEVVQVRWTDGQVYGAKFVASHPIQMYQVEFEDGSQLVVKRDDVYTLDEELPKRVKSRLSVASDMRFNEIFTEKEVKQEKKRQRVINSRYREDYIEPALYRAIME
Assay: qHTS Assay for Inhibitors of JMJD2A-Tudor Domain; further: nearly all actives have a fitted effect of over 50% in size
Conditions: AlphaScreen JMJD2A-Tudor / H3K4me3 peptide binding; activity change, negative = inhibition: at 114 µM (top of the series)
On the % scale 0 is the no-effect control and ±100 the full control effect; potency means the concentration at half of the fitted maximal effect; tags describe the fitted curve by direction and shape.

Potency, inconclusive:
NC(N)=N/N=C/c1ccc(OCc2ccc(Cl)cc2)cc1 89.1 µM [inhibitor, partial curve], COCc1nnc(NS(=O)(=O)c2ccc(C)cc2)s1 89.1 µM [inhibitor, single point], COc1ccc(C(=O)c2coc3c2C(=O)C(=O)c2ccccc2-3)cc1 44.7 µM [inhibitor, partial curve], CN(C)c1ccc(N/C=C/C(=O)c2ccc(F)cc2)cc1 56.2 µM [inhibitor, partial curve], Cc1ccc(C(=O)Nc2ccc(S(=O)(=O)N3CCc4ccccc43)cc2)o1 39.8 µM [inhibitor, partial curve], CC(CCN1CCN(c2ccc(F)cc2)CC1)c1ccccc1 (stereo unspecified) 50.1 µM [inhibitor, partial curve], Cc1ccc(C)c(OCC(=O)Nc2ccccc2N2CCCC2)c1 44.7 µM [inhibitor, partial curve], COc1ccc(C(=O)c2c(C)oc3cc([N+](=O)[O-])c(O)c([N+](=O)[O-])c23)cc1 56.2 µM [inhibitor, partial curve], COc1ccc(NC(=O)c2cc(-c3ccco3)nc3ccccc23)cc1 28.2 µM [inhibitor, partial curve, poor fit], Cc1ncsc1C(=O)O 89.1 µM [inhibitor, single point], COC(=O)[C@]1(Cc2ccccc2)N[C@H](c2ccc(-c3ccccc3)cc2)[C@@H]2C(=O)N(C)C(=O)[C@@H]21 39.8 µM [inhibitor, partial curve], COc1ccc(OCC2c3cc(OC)c(OC)cc3CCN2C(=O)c2c(F)cccc2F)cc1 (stereo unspecified) 44.7 µM [inhibitor, partial curve], COc1ccc(-c2nc3ccc(Cl)cn3c2Nc2ccc(C)cc2)cc1 100 µM [inhibitor, partial curve, poor fit], Cc1ccc(NC(=O)c2ccc(Nc3c([N+](=O)[O-])cc([N+](=O)[O-])cc3[N+](=O)[O-])cc2)cc1 8.91 µM [inhibitor, full curve], Cc1c(C(=O)Nc2ccc(S(=O)(=O)N(C)C3CCN(C)CC3)cc2)oc2ccccc12 22.4 µM [inhibitor, full curve, poor fit], O=C(Nc1ccccc1N1CCCCC1)c1cccs1 39.8 µM [inhibitor, single point], CC(C)Oc1ccc(/C=N/NC(=O)c2nnn(-c3nonc3N)c2CN(C)c2ccccc2)cc1 44.7 µM [inhibitor, partial curve, poor fit], CCOc1cccc(C(=O)NC(=S)Nc2cccnc2)c1 28.2 µM [inhibitor, single point], COc1cc(NC(C)CCCN)c2ncccc2c1 (stereo unspecified) 56.2 µM [inhibitor, partial curve], Fc1ccc(Nc2c(-c3ccccn3)nc3ccc(Cl)cn23)cc1 3.16 µM [inhibitor, full curve, poor fit], CCCCC(c1nnnn1CS(=O)(=O)c1ccc(C)cc1)N1CCN(C)CC1 (stereo unspecified) 50.1 µM [inhibitor, partial curve], Cc1ccnc(NC(c2ccsc2)c2ccc3ccc(C)nc3c2O)c1 (stereo unspecified) 15.8 µM [inhibitor, full curve], COc1ccc(-n2c(=O)c3c4c(sc3n(Cc3ccc(C(C)(C)C)cc3)c2=O)CCC4)c(OC)c1 20 µM [inhibitor, full curve], CC1(C)CC2CC(C)(CN2CC(O)COc2ccccc2)C1 (stereo unspecified) 31.6 µM [inhibitor, single point], CCN(CC)c1ccc(C2C(C(=O)OCCOC(C)C)=C(C)NC3=C2C(=O)CCC3)cc1 (stereo unspecified) 56.2 µM [inhibitor, partial curve], COc1ccc(NC(=O)c2c(C)oc3ccc(O)c(CN4CCCCCC4)c23)cc1 89.1 µM [inhibitor, partial curve], CN(C)c1ccc(/C=N/Nc2cccc(C(=O)O)c2)cc1 50.1 µM [inhibitor, partial curve], NCCNC[C@@H]1COC2(CCCCCCCCCCC2)O1 100 µM [inhibitor, partial curve], Cc1cc(C)c2nc(N3C(=O)C(O)=C(C(=O)c4ccco4)C3c3cccc(O)c3)sc2c1 (stereo unspecified) 2.51 µM [inhibitor, full curve, poor fit], COc1ccc(/C=N\NC(=O)c2ccccc2Br)cc1COc1ccccc1 39.8 µM [inhibitor, full curve, poor fit], CCOC(=O)c1nn(-c2ccc(OC)cc2)c(=O)c2c(N)scc12 56.2 µM [inhibitor, partial curve], Cc1ccc(C(=O)CSc2nnc(-c3ccco3)n2Cc2ccccc2)cc1 3.55 µM [inhibitor, single point], O=C1c2ccccc2C(=O)c2c(NCc3cccnc3)cccc21 2.51 µM [inhibitor, full curve], COc1ccc(C=NNC(=S)NC23CC4CC(CC(C4)C2)C3)cc1OC 14.1 µM [inhibitor, full curve], Cc1cccc(NC(=O)[C@H](Cc2c[nH]c3ccccc23)NC(=O)[C@@H]2Cc3ccccc3CN2)c1 89.1 µM [inhibitor, partial curve], CN(C)CCN(C(=O)c1cccc(Cl)c1)c1nc2c(Cl)cccc2s1 14.1 µM [inhibitor, full curve, poor fit]

Potency, active:
C=CCNCCOCCSc1ccc(Cl)cc1 3.16 µM, Cn1cccc1/C=N/n1c(-c2ccc(C(C)(C)C)cc2)n[nH]c1=S 50.1 µM, COc1ccc(OCC(=O)N/N=C/c2cccc3cccnc23)cc1 79.4 µM, Cc1c(Cl)cccc1Nc1n[nH]c(=S)s1 11.2 µM, Cc1ccc(OCCN2CCCC2)cc1 17.8 µM, CC(C)OCCCNC(=S)Nc1ccc(S(N)(=O)=O)cc1 89.1 µM, COC(=O)c1ccc(C2Nc3cccc4cccc(c34)N2)cc1 20 µM, NS(=O)(=O)c1ccc(NC(=O)c2csnn2)cc1 89.1 µM, Cc1ccc(S(=O)(=O)NNC(=O)C2CCN(Cc3ccccc3)CC2)cc1 79.4 µM, CCN1CCCC1CNC(=O)c1cc(N)ccc1OC (stereo unspecified) 0.794 µM, O=C(COC(=O)c1ccccn1)Nc1ccccc1OC(F)F 56.2 µM, COc1ccc(CN2CCN(c3ccccn3)CC2)c(OC)c1C 10 µM and 56.2 µM, COc1cc(OC)c(C2CC(=O)N3CN(C)CSC3=C2C#N)cc1OC (stereo unspecified) 3.98 µM, CCc1cccc(CC)c1NC(=S)NCCc1c(C)[nH]c2ccc(C)cc12 31.6 µM, Cc1ccc2c(c1)C(c1ccccc1)N(C(=O)c1ccc(S(=O)(=O)N3CCOCC3)cc1)CC(=O)N2 (stereo unspecified) 50.1 µM, Cc1ccc(OCC(=O)N(C)CC(=O)NCc2ccco2)c(Br)c1 35.5 µM, O=C1/C(=C\c2cc(Br)cc(Br)c2O)SC(=S)N1Cc1ccccc1 28.2 µM

Potency, inactive:
Cc1ccc(N2CCN(S(=O)(=O)c3ccc(-n4cnnn4)cc3)CC2)c(C)c1, CN(Cc1ccco1)S(=O)(=O)c1nnc(NC(=O)c2ccccc2Cl)s1

Activity change, negative = inhibition, inactive:
CN(C)CCCNCCCNC(=O)c1ccncc1 -22.3%, CC(C)c1cc(C(=O)N2CCCC(CCC(=O)N3CCN(c4ccccn4)CC3)C2)no1 (stereo unspecified) -2.05%, Cn1cc(C(CO)Cc2ccccc2)c2ccccc21 (stereo unspecified) -34.5%, Cc1ccc(-c2nnc(-c3ccc4ccccc4c3)o2)cc1 -4.17%, c1cncc(-c2nc(NCc3ccc4c(c3)OCO4)c3ccccc3n2)c1 -14%, Cc1cccc(NC(=O)c2cc(-c3ccccn3)nc3ccccc23)c1C -32.6%, COc1ccc(N2CCN(CCCn3c(=S)[nH]c4ncccc4c3=O)CC2)cc1 -34.9%, Cc1ccc(N(Cc2ccc(C(=O)NN=C3CCN(C)CC3)cc2)S(C)(=O)=O)cc1C -15.6%, CCn1c(Oc2ccccc2)nc2c1c(=O)n(C)c(=O)n2C -12.5% [at 57.1 µM], COCCn1c(C)cc(O)c(C(c2ccc(OC)cc2)N2CCN(c3ccccc3)CC2)c1=O (stereo unspecified) -25.6%, CCOCCCNC(=O)c1c(NC(=O)c2nc(SC)ncc2Cl)sc2c1CCCC2 -9.72%, Cc1noc(C)c1COc1ccccc1C(=O)NCCc1ccc(S(N)(=O)=O)cc1 -5.11%, Cc1nc(SCC(=O)Nc2nc3ccccc3s2)c(C#N)c(C)c1C 3.01%, CC(=O)c1c(C)[nH]c(C(=O)CN2C(=O)NC(CCc3ccccc3)C2=O)c1C (stereo unspecified) -22.5%, Cc1nc(CSc2n[nH]c(=O)n2-c2cccc(F)c2)cs1 -2.7%, COc1ccc(C(=O)CCC(=O)Nc2ccc(C)c(Cl)c2)cc1 5.45%, O=C(NCc1cccs1)c1ccc(CSc2nc3ccncc3n2Cc2ccccc2F)cc1 -24.4%, Cc1ccc(S(=O)(=O)CCN2CCN(c3ccccc3)CC2)cc1 1.34%, CCC(=O)N1CCc2cc(S(=O)(=O)NC(C(=O)NCCc3cccc(C)c3)C(C)C)ccc21 (stereo unspecified) -3%, Cc1nc(N2CCN(C(=O)c3cnccn3)CC2)c2c3c(sc2n1)CC(C(C)(C)C)CC3 (stereo unspecified) -12%, CCOC(=O)c1ccccc1NC(=O)c1cnc(N2CCOCC2)c2ccccc12 53.5%
